Paper PMC7830406
No constants are given. Whether binding was seen depends on the method and setting. For part of these data: Binding seen in cells or lysates may run through a third protein. Some results given as binding are weak or reduced against the parent protein; the word gives no strength. Sequences can lack the tags named with a protein.

T1: 14–3–3 ε, GAL4 DNA-binding domain fusion (bait) (Arabidopsis thaliana) (UniProt P48347)
T1 sequence: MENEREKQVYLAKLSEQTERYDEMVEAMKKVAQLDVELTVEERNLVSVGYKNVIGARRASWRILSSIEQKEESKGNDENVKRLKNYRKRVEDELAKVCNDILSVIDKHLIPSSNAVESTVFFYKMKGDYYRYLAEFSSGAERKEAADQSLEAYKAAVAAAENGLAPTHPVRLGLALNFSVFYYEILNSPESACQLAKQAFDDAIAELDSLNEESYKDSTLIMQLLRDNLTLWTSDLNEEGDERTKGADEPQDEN

T2: 14–3–3 ε-nYFP (Arabidopsis thaliana) (UniProt P48347)
T2 sequence: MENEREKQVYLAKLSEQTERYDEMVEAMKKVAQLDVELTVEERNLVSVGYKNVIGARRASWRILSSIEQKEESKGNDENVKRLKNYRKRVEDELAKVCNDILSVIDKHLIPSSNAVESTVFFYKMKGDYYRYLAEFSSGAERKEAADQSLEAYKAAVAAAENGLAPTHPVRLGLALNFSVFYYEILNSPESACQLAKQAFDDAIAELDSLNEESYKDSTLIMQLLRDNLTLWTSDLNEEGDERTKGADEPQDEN


Each binder was assayed against T1, 14–3–3 ε, GAL4 DNA-binding domain fusion (bait) (Arabidopsis thaliana) (assay: two-hybrid; yeast MaV203; bait 14-3-3 ε as GAL4 BD fusion, preys bZIP as GAL4 AD fusions; growth on SC -L/-T/-H + 10 mM 3AT, 28 °C, 5 days).

| binding | Binder |
| --- | --- |
| binds | bZIP18, GAL4 activation domain fusion (prey) (protein, UniProt O22873 1-367) MEDPSNPQPNQSNLSQCPPLATAPTPAPVRGPYHRRAHSEVQFRLPEDLDLSEPFGGFDELGSEDDLFCSYMDIEKLGSGSGSASDSAGPSAPRSDNPFSAENGGAEAGNSRPRHRHSLSVDGSSTLESIEAKKAMAPDKLAELWVVDPKRAKRIIANRQSAARSKERKARYILELERKVQTLQTEATTLSAQLSLFQRDTTGLSSENTELKLRLQVMEQQAKLRDALNEQLKKEVERLKFATGEVSPADAYNLGMAHMQYQQQPQQSFFQHHHQQQTDAQNLQQMTHQFHLFQPNNNQNQSSRTNPPTAHQLMHHATSNAPAQSHSYSEAMHEDHLGRLQGLDISSCGRGSNFGRSDTVSESSSTM |
| no binding | bZIP18-S39A/S120A, GAL4 activation domain fusion (prey) (protein, UniProt O22873 1-367) MEDPSNPQPNQSNLSQCPPLATAPTPAPVRGPYHRRAHAEVQFRLPEDLDLSEPFGGFDELGSEDDLFCSYMDIEKLGSGSGSASDSAGPSAPRSDNPFSAENGGAEAGNSRPRHRHSLAVDGSSTLESIEAKKAMAPDKLAELWVVDPKRAKRIIANRQSAARSKERKARYILELERKVQTLQTEATTLSAQLSLFQRDTTGLSSENTELKLRLQVMEQQAKLRDALNEQLKKEVERLKFATGEVSPADAYNLGMAHMQYQQQPQQSFFQHHHQQQTDAQNLQQMTHQFHLFQPNNNQNQSSRTNPPTAHQLMHHATSNAPAQSHSYSEAMHEDHLGRLQGLDISSCGRGSNFGRSDTVSESSSTM |
| binds | bZIP18-S120A, GAL4 activation domain fusion (prey) (protein, UniProt O22873 1-367) MEDPSNPQPNQSNLSQCPPLATAPTPAPVRGPYHRRAHSEVQFRLPEDLDLSEPFGGFDELGSEDDLFCSYMDIEKLGSGSGSASDSAGPSAPRSDNPFSAENGGAEAGNSRPRHRHSLAVDGSSTLESIEAKKAMAPDKLAELWVVDPKRAKRIIANRQSAARSKERKARYILELERKVQTLQTEATTLSAQLSLFQRDTTGLSSENTELKLRLQVMEQQAKLRDALNEQLKKEVERLKFATGEVSPADAYNLGMAHMQYQQQPQQSFFQHHHQQQTDAQNLQQMTHQFHLFQPNNNQNQSSRTNPPTAHQLMHHATSNAPAQSHSYSEAMHEDHLGRLQGLDISSCGRGSNFGRSDTVSESSSTM |

The binders below were run against T2, 14–3–3 ε-nYFP (Arabidopsis thaliana) (assay: split reporter; BiFC (split YFP, pBiFCt-2in1-CC, RFP as transformation control) in N. benthamiana leaf epidermal cells, confocal microscopy).

| binding | Binder |
| --- | --- |
| binds weakly | bZIP18-S120A-cYFP (protein, UniProt O22873 1-367) MEDPSNPQPNQSNLSQCPPLATAPTPAPVRGPYHRRAHSEVQFRLPEDLDLSEPFGGFDELGSEDDLFCSYMDIEKLGSGSGSASDSAGPSAPRSDNPFSAENGGAEAGNSRPRHRHSLAVDGSSTLESIEAKKAMAPDKLAELWVVDPKRAKRIIANRQSAARSKERKARYILELERKVQTLQTEATTLSAQLSLFQRDTTGLSSENTELKLRLQVMEQQAKLRDALNEQLKKEVERLKFATGEVSPADAYNLGMAHMQYQQQPQQSFFQHHHQQQTDAQNLQQMTHQFHLFQPNNNQNQSSRTNPPTAHQLMHHATSNAPAQSHSYSEAMHEDHLGRLQGLDISSCGRGSNFGRSDTVSESSSTM |
| no binding | bZIP18-S39A/S120A-cYFP (protein, UniProt O22873 1-367) MEDPSNPQPNQSNLSQCPPLATAPTPAPVRGPYHRRAHAEVQFRLPEDLDLSEPFGGFDELGSEDDLFCSYMDIEKLGSGSGSASDSAGPSAPRSDNPFSAENGGAEAGNSRPRHRHSLAVDGSSTLESIEAKKAMAPDKLAELWVVDPKRAKRIIANRQSAARSKERKARYILELERKVQTLQTEATTLSAQLSLFQRDTTGLSSENTELKLRLQVMEQQAKLRDALNEQLKKEVERLKFATGEVSPADAYNLGMAHMQYQQQPQQSFFQHHHQQQTDAQNLQQMTHQFHLFQPNNNQNQSSRTNPPTAHQLMHHATSNAPAQSHSYSEAMHEDHLGRLQGLDISSCGRGSNFGRSDTVSESSSTM |
| binds | bZIP18-cYFP (protein, UniProt O22873 1-367) MEDPSNPQPNQSNLSQCPPLATAPTPAPVRGPYHRRAHSEVQFRLPEDLDLSEPFGGFDELGSEDDLFCSYMDIEKLGSGSGSASDSAGPSAPRSDNPFSAENGGAEAGNSRPRHRHSLSVDGSSTLESIEAKKAMAPDKLAELWVVDPKRAKRIIANRQSAARSKERKARYILELERKVQTLQTEATTLSAQLSLFQRDTTGLSSENTELKLRLQVMEQQAKLRDALNEQLKKEVERLKFATGEVSPADAYNLGMAHMQYQQQPQQSFFQHHHQQQTDAQNLQQMTHQFHLFQPNNNQNQSSRTNPPTAHQLMHHATSNAPAQSHSYSEAMHEDHLGRLQGLDISSCGRGSNFGRSDTVSESSSTM |
